Measurements published in paper PMC6919601, “Identification of Plasmodium dipeptidyl aminopeptidase allosteric inhibitors by high throughput screening” (PLoS ONE, 2019).
Among all 110,000 compounds or so, about 230 (0.21%) showed an effect of 50% or more. The list shows a part of the results.

molecular target: DPAP1 (Plasmodium falciparum, UniProt Q8IIJ9); assay: primary screen, percent inhibition; read by cleavage of a fluorogenic dipeptide substrate; higher = more effect of the substance; parameters: species or system P. falciparum D10 trophozoite lysates; single well
Sequence (Q8IIJ9 whole entry, looked up): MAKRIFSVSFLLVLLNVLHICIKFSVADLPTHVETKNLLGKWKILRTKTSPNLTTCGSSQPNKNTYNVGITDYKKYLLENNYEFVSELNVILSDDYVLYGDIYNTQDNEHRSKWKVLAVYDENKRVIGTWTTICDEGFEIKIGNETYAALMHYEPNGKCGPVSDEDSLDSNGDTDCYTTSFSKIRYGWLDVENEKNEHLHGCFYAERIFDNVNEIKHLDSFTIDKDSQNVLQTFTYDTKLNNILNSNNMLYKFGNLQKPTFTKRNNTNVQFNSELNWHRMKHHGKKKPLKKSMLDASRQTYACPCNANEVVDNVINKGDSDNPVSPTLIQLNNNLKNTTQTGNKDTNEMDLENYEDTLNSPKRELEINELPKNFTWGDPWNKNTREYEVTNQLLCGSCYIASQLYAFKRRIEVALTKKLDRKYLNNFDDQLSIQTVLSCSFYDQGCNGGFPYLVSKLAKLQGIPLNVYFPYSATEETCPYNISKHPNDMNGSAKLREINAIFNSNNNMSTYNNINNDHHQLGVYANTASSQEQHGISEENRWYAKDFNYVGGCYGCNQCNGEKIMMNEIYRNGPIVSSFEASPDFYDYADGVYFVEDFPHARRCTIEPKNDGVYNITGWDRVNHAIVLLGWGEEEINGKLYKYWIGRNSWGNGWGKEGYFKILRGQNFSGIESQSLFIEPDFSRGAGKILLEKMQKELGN
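Also: 30 min substrate incubation versus DMSO and 10 µM JCP410 controls.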

Row | Compound | % Inhibition @ 10 uM
1 | O=S(=O)(NC1CCCCC1N1CCN(Cc2ccc3c(c2)OCO3)CC1)c1ccc(Cl)cc1 (centres unmarked) | -4.19%
2 | O=C(Nc1c(C(=O)c2ccc3c(c2)OCO3)oc2ccccc12)c1ccco1 | 4.33%
3 | CCOC(=O)c1sc(-c2ccccc2)nc1-c1ccc([N+](=O)[O-])cc1 | 2.86%
4 | COc1ccc(CC(=O)NCCc2ccccc2)cc1 | -6.27%
5 | CCOC(=O)c1c(NC(=S)NC(=O)/C=C/c2ccc(F)cc2)sc2c1CCCC2 | 3.47%
6 | COc1ccccc1C(=O)Nc1ccc2nc(SCC(=O)N3CCOCC3)sc2c1 | 3.99%
7 | COc1ccc(OC)c(CN2CCN(C(=O)c3cccc(Cl)c3)CC2)c1 | -3.49%
8 | c1ccc(-c2noc(-c3ccccc3)c3cccc2-3)cc1 | -2.77%
9 | CS(=O)(=O)Nc1cccc(-c2cn3cccnc3n2)c1 | 5.07%
10 | O=C(C1=C(O)C(=O)N(CCOCCO)C1c1cccc(F)c1)c1ccc(Br)cc1 (centres unmarked) | -1.88%
11 | OC1COC(Oc2ccccc2)C(O)C1O (centres unmarked) | 4.54%
12 | Oc1nnnc2sc(-c3ccccc3)cc12 | 7.04%
13 | Cc1ccc(CNC(=O)Cn2ncn3c(c(-n4cccc4)c4c5c(sc43)CCCC5)c2=O)cc1 | -3.34%
14 | CCN(CC)CCCNCc1cccc(OC)c1 | -3.12%
15 | CCOC(=O)c1c(C)[nH]c(C)c1S(=O)(=O)N(C)CC(=O)Nc1ccc(C)cn1 | -4.17%
16 | CN(C)c1nc(NCCOC23CC4CC(CC(C4)C2)C3)nc(OCC(F)(F)F)n1 | -1.82%
17 | CCOc1ccc(NC(=O)CCC(=O)c2ccc(C)cc2)cc1 | -5.57%
18 | COC(=O)c1c(C)oc2ccc(O)c(CN3CCCCC3C)c12 (centres unmarked) | -4.82%
19 | O=c1c(-c2ccccc2)c(O)nc2ccccn12 | -0.999%
20 | Cc1ccc(-n2ncc(C(=O)N3CCCC3)c2C2CCN(C(=O)OC(C)(C)C)CC2)cc1C | 1.23%
21 | COc1ccc(CC(=O)Nc2cccc(C(=O)Nc3ccccc3C(=O)O)c2)cc1OC | 2.44%
22 | N#Cc1ccccc1CSc1nc2ncccc2o1 | 1.97%
23 | CC(C)C[C@H](NC(=O)c1ccc(-c2ccccc2Cl)s1)C(=O)NCC#N | -1.82%
24 | COc1cc(/C=C2/SC(=O)N(CC(=O)Nc3ccccc3)C2=O)ccc1O | 11.1%
25 | CCOC(=O)c1[nH]c2ccccc2c1CC#N | -3%

Row | Compound | % Inhibition @ 10 uM
26 | C=CCOc1ccc(C(=O)Nc2nonc2-c2ccc(OC)c(OC)c2)cc1 | 5.43%
27 | CNC(=O)COc1ccccc1C(=O)Nc1ccc(Oc2ccc(Cl)cc2)cc1 | -0.545%
28 | Cc1oc2ccc(O)c(CN(C)C)c2c1C(=O)OCCc1ccccc1 | 0.486%
29 | CC(C)=CCCC1(C)NC(=O)NC1=O (centres unmarked) | 1.05%
30 | COc1cccc(CN2CCN(Cc3cc(OC)c(OC)c(OC)c3)CC2)c1 | -2.6%
31 | O=C(NCC1CCCO1)C1c2ccccc2C(=O)N1Cc1ccc2c(c1)OCO2 (centres unmarked) | 2.93%
32 | Nc1nc(O)c2nc(N3CCCCC3)n([C@@H]3O[C@H](CO)[C@@H](O)[C@H]3O)c2n1 | 0.221%
33 | COc1cc(C2(c3ccc(O)c(OC)c3)C(=O)N(C)c3ccc(Br)cc32)ccc1O | -1.49%
34 | Cc1ccc(-c2cc(C(=O)Nc3ccc4c(c3)OCCO4)c3ccccc3n2)o1 | -7.08%
35 | Cc1ccc(C)c(OCC(=O)NC2CC(C)(C)NC(C)(C)C2)c1 | -4.93%
36 | O=C(NCc1cccs1)C1CCN(S(=O)(=O)c2cccc3cccnc23)CC1 | 0.208%
37 | CC(C)OP(C)(=O)CN1CCN(CP(C)(=O)OC(C)C)CC1 (centres unmarked) | -7.15%
38 | N#CC1=C(N)Oc2[nH]nc(-c3cccs3)c2C1c1ccc(Cl)c(Cl)c1 (centres unmarked) | -4.12%
39 | O=C(O)Cc1ccc(NC(=O)c2ccccc2[N+](=O)[O-])cc1 | 4.54%
40 | O=c1cc(CSc2nc3ncccc3o2)nc2ccccn12 | -2.41%
41 | CCC(O)(c1ccccc1)C(CN1CCOCC1)c1ccccc1 (centres unmarked) | 1.12%
42 | Cc1nn(-c2ccccc2)c(O)c1/C=N/c1ccc(S(=O)(=O)N2CCOCC2)cc1 | 16.1%
43 | COc1cc(C(=O)Nc2ccc3c(c2)OCCO3)ccc1OC(F)F | -1.89%
44 | CCc1nn(Cc2ccccc2F)c(=O)c2cc3cc(C)ccc3n12 | 3%
45 | O=C(NCCCN1CCOCC1)c1nnc(-c2ccc3c(c2)OCO3)o1 | -2.58%
46 | CC(=O)OC12CC3CC(C1)C(=O)C(C3)C2 | 0.526%
47 | COc1ccc2cc(S(=O)(=O)c3ccc(C(C)(C)C)cc3)c(=O)oc2c1 | 0.44%
48 | COCCNC(=O)c1onc(C)c1Cl | -0.0115%
49 | COc1cccc(NC2=C(Cl)C(=O)N(c3ccccc3C)C2=O)c1 | 2.08%
50 | Cc1cc(C(F)(F)F)nn1CC(=O)NCc1ccccc1 | -6.39%
